The % Inhibition is the change of the read-out against control, counted positive when it falls.

Consider 42 molecules from ChEMBL document CHEMBL4888484, “Replenishing the malaria drug discovery pipeline: Screening and hit evaluation of the MMV Hit Generation Library 1 (HGL1) against asexual blood stage Plasmodium falciparum ,using a nano luciferase reporter read-out” (2022).

The structures appear in SMILES notation. The campaign covered roughly 150,000 compounds. About 540 (0.36%) showed an effect of 50% or more. Some of the results follow.

The experiment concerns Plasmodium falciparum. Put plainly: Primary screen in NF54 nanoGlo assay, in single point, at 2uM, 72h; a lower Z score goes with more inhibition. In kind it is functional, Erythrocyte. The settings on record: timepoint 72 hour.
`Cc1sc(NC(=O)c2ccccc2Cl)nc1-c1ccc2c(c1)NC(=O)[C@H](C)O2`: the “% Inhibition” value is given as 36% and the Z score is on record as -1.31.
Regarding `CCCCS(=O)(=O)N1CCC(O)(Cc2nc(C)cs2)CC1`, the “% Inhibition” value was -14% and the Z score is 1.88.
In the same order, the values of `Cc1cc(C)c2c(C)c(C(=O)Nc3cccc(-c4nc5ccccc5s4)c3)oc2c1` are 16% and -1.84.
With `Fc1ccc(N2CCC(NC[C@@H](c3cccnc3)N3CCCCC3)CC2)cc1F`, the “% Inhibition” value is on record as 1% and the Z score was -0.19.
Turning to `CCc1c(C(=O)N2CC[C@H](c3sccc3C)[C@@H](O)C2)csc1C`, the “% Inhibition” value turned out to be 1% and the Z score is listed as -0.18.
The corresponding values for `COc1cccc(CC(=O)Nc2c(C(=O)N3CCCCCC3)oc3ccccc23)c1` are -19% and 2.72.
In the case of `Cc1cccc(N2CCN(S(=O)(=O)c3cnc(C)s3)CC2)c1`, the “% Inhibition” value is -21% and the Z score was found to be 3.58.
In the same order, the values of `O=C1CCC(C(=O)N(Cc2ccccc2)Cc2nccs2)=NN1` are -3% and 0.52.
For `COc1ccc(C(CN2CCN(C)CC2)NCC2CC=CCC2)cc1` (centres undefined), the “% Inhibition” value is 13% and the Z score is given as -1.92.
The corresponding values for `COc1cc2c(cc1C(=O)N1CC(C)(C)[C@@](C)(O)C1)CCC2` are -4% and 0.69.
In the same order, the values of `CCc1ccccc1-c1nccn1CCN(C)C` are -10% and 1.67.
`CC(C)CC(C#N)CN1CCC(C(N)=O)C1` (centres undefined): the “% Inhibition” value was 14% and the Z score is listed as -1.63.
The corresponding values for `C[C@@H](c1nc(-c2cccnn2)no1)N1CCCC1=O` are -8% and 0.73.
For the molecule `Nc1ncc(CN2CCCC23CCCCC3)s1`, the “% Inhibition” value is listed as -11% and the Z score is 1.09.
The corresponding values for `O=C(Nc1ccc(S(=O)(=O)Nc2nccs2)cc1)c1ccc2c(c1)OCO2` are -5% and 0.87.
`CCC1(CNC(=O)NCCNC(C)=O)CCCC1`: the “% Inhibition” value is on record as -4% and the Z score is reported as 0.5.
For the molecule `CCNC(=O)N(Cc1c(CC)nn(-c2ccc(F)cc2)c1Oc1ccccc1)C[C@H]1CCCO1`, the “% Inhibition” value is given as -12% and the Z score was determined as 1.04.
On to `Cc1ccc(CNC(=O)c2ccc(C)nc2C2CCN(Cc3cccs3)CC2)cc1`, for which the “% Inhibition” value is -15% and the Z score was found to be 1.65.
Consider `COc1ccc(CCn2c(N3CCOCC3)nc3c2c(=O)n(C)c(=O)n3C)cc1`, for which the “% Inhibition” value was 29% and the Z score is -3.88.
Regarding `O=C(Nc1cc2ccc(Br)cn2n1)C1CC12CCOC2` (centres undefined), the “% Inhibition” value is given as -11% and the Z score is 1.25.
The corresponding values for `Cn1cncc1CNC[C@H]1CCCN1CC1CCCCC1` are 3% and -0.25.
Take `Cc1ccc2c(c1)CN(C(=O)c1cccc(OC(C)C)n1)CCO2`: the “% Inhibition” value is -8% and the Z score turned out to be 1.12.
With `Cc1ccc(N2C(=O)c3cc(-c4ccco4)nn3C[C@@]2(C)C(=O)NC2CCCCCCC2)cc1C`, the “% Inhibition” value was -13% and the Z score amounted to 2.41.
In the same order, the values of `CCCc1cc(-c2nc(CCOC)no2)n(C)n1` are -8% and 1.43.
As for `Cc1c(CCC(=O)N2CCCO[C@H](C(C)C)C2)cnn1C`, the “% Inhibition” value was 2% and the Z score was -0.31.
With `C[C@H](OC(=O)c1ccc2c(c1)CCC2)C(=O)Nc1ccc(S(N)(=O)=O)cc1`, the “% Inhibition” value is -8% and the Z score worked out at 1.42.
In the same order, the values of `CC(C(=O)NC1CCCC1(C)CO)c1ccc(Cl)s1` (centres undefined) are -6% and 0.69.
In the same order, the values of `Cc1cc(C)cc(N2C(=O)CN(S(=O)(=O)c3ccccc3)C[C@@]2(C)C(=O)NC2CCCCCC2)c1` are -14% and 1.73.
Turning to `CC(C)Oc1cnccc1NC(=O)N1CCOCC[C@@H]1C`, the “% Inhibition” value was -3% and the Z score stood at 0.57.
In the case of `C=CCC[C@@H](CN1CCOCC1)Oc1cc(C(F)(F)F)ccn1`, the “% Inhibition” value is given as 2% and the Z score is recorded as -0.26.
`Cc1cc(NC(=O)CN(C)c2c(F)cccc2F)on1`: the “% Inhibition” value is given as -43% and the Z score was determined as 5.
The corresponding values for `Fc1ccc(CC2CCN(c3ncnc4nc[nH]c34)CC2)cc1F` are -7% and 0.89.
For `CCCc1noc(CCCC(=O)Nc2ccc(-n3cc[nH]c3=O)cc2)n1`, the “% Inhibition” value is recorded as -18% and the Z score came to 2.85.
The corresponding values for `Cc1ccc(S(=O)(=O)CCc2noc(C(=O)NCCN3CCCC3)n2)cc1` are -2% and 0.26.
Regarding `Cc1ccc(-c2nccn2CCCO)c(Cl)c1Cl`, the “% Inhibition” value was -8% and the Z score is recorded as 1.23.
`COc1cccc(CNC(=O)c2ccc(-n3nnc4cccnc43)c(C)c2)c1`: the “% Inhibition” value is given as -12% and the Z score stood at 1.64.
With `O=C(NCCC1=CCCCC1)c1cccc2sc(N3CCCc4ccccc43)nc12`, the “% Inhibition” value is -9% and the Z score came to 1.11.
The corresponding values for `c1ccc(C(C[C@H]2CN(Cc3nccs3)CCO2)c2ccccc2)cc1` are -12% and 1.53.
`Cc1[nH]ncc1CCCNc1noc(C(C)(C)C)n1`: the “% Inhibition” value is on record as 1% and the Z score is -0.11.
The corresponding values for `Cn1nccc1[C@H](O)c1cc2n(n1)CCN(c1ncc(Cl)cn1)C2` are -16% and 1.46.
The corresponding values for `CCOC(=O)c1nc(NC(=O)Nc2cc[nH]n2)sc1C(F)(F)F` are -5% and 0.86.
With `N#Cc1ccnc(OCC2CCNCC2)c1`, the “% Inhibition” value was -13% and the Z score is given as 1.44.
